From patent US20230165967A1 (TAE LIFE SCIENCES, published 2023)
Where two headings read alike, the source gives them in different places.

B1: Anti-EGFR Ab No. 1 L328C (antibody, human IgG1, kappa)
heavy: QVQLQESGPGLVKPSETLSLTCTVSGGSVSSGDYYWTWIRQSPGKGLEWIGHIYYSGNTNYNPSLKSRLTISIDTSKTQFSLKLSSVTAADTAIYYCVRDRVTGAFDIWGQGTMVTVSSASTKGPSVFPLAPSSKSTSGGTAALGCLVKDYFPEPVTVSWNSGALTSGVHTFPAVLQSSGLYSLSSVVTVPSSSLGTQTYICNVNHKPSNTKVDKKV[human IgG1 Fc with L328C (EU numbers) not written out]
light: DIQMTQSPSSLSASVGDRVTITCQASQDISNYLNWYQQKPGKAPKLLIYDASNLETGVPSRFSGSGSGTDFTFTISSLQPEDIATYFCQHFDHLPLAFGGGTKVEIKRTVAAPSVFIFPPSDEQLKSGTASVVCLLNNFYPREAKVQWKVDNALQSGNSQESVTEQDSKDSTYSLSSTLTLSKADYEKHKVYACEVTHQGLSSPVTKSFNRGEC
notes: Fc variant; wild-type light chain; also called Anti-EGFR Mab No. 1 single mutant; single mutation L328C
B2: Anti-CDH3 Ab L328C (antibody, human IgG1, kappa)
heavy: QVQLQQSGPGLVKPSQTLSLTCAISGDSVSSQSAAWNWIRQSPSRGLEWLGRIYYRSKWYNDYALSVKSRITINPDTSKNQFSLQLNSVTPEDTAVYYCARGEGYGREGFAIWGQGTLVTVSSASTKGPSVFPLAPSSKSTSGGTAALGCLVKDYFPEPVTVSWNSGALTSGVHTFPAVLQSSGLYSLSSVVTVPSSSLGTQTYICNVNHKPSNTKVDKRV[human IgG1 Fc with L328C (EU numbers) not written out]
light: DIQMTQSPSSLSASVGDRVTITCRASQTISNTLAWYQQKPGKAPKLLIYAASNLQSGVPSRFSGSGSGTDFTLTISSLQPEDFATYYCQQYLSWFTFGQGTKVEIKRTVAAPSVFIFPPSDEQLKSGTASVVCLLNNFYPREAKVQWKVDNALQSGNSQESVTEQDSKDSTYSLSSTLTLSKADYEKHKVYACEVTHQGLSSPVTKSFNRGEC
notes: Fc variant; wild-type light chain; also called Anti-CDH3 Mab single mutant; single mutation L328C

Assays:
[1] = target: T1, human C1q (sigma Cat #C1740) (human, UniProt P02745; P02746; P02747); assay: ELISA: plate coated with antibody at 1 ug/ml, human C1q titrated 0.625-40 ug/ml, rabbit anti-human C1q then HRP goat anti-rabbit, OD650
[2] = target: T2, FcγRIIa (CD32) (Sino Biological, cat #10374-H08H) (UniProt P12318 34-218); assay: Sandwich ELISA: anti-His capture of His-tagged FcγRIIA mixed with titrated antibody, HRP goat anti-human IgG Fc, OD650
T2 sequence (looked up): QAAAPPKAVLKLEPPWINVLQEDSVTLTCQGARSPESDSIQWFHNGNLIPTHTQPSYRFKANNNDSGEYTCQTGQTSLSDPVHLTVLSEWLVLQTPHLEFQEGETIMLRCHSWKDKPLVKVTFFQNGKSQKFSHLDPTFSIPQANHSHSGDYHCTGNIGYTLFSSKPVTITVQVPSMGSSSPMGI

[3] = target: T3, recombinant human FcRn (Sino Biological) (human, UniProt P55899 in part; P61769 in part); assay: ELISA at pH 6.0: plate coated with recombinant human FcRn, antibody titrated, HRP goat anti-human Fc, OD650
[4] = target: T1, human C1q (sigma Cat #C1740); assay: ELISA: plate coated with antibody at 1 ug/ml, human C1q titrated 0.625-40 ug/ml, rabbit anti-human C1q then HRP goat anti-rabbit, OD650; remark: listed apart in the source
[5] = target: T2, FcγRIIa (CD32) (Sino Biological, cat …); assay: Sandwich ELISA: anti-His capture of His-tagged FcγRIIA mixed with titrated antibody, HRP goat anti-human IgG Fc, OD650; remark: listed apart in the source
[6] = target: T4, recombinant human soluble ECD of CD64/FCGRIA (human, UniProt P12314 16-292); assay: ELISA: plate coated with recombinant human CD64/FCGRIA ECD, antibody titrated, HRP goat anti-human Fc, OD650
T4 construct: extracellular domain; also called FcγRI

[7] = target: T3, recombinant human FcRn (Sino Biological); assay: ELISA at pH 6.0: plate coated with recombinant human FcRn, antibody titrated, HRP goat anti-human Fc, OD650; remark: listed apart in the source
T3 sequence (P55899 24-297 limits assumed, chain 1 of 2): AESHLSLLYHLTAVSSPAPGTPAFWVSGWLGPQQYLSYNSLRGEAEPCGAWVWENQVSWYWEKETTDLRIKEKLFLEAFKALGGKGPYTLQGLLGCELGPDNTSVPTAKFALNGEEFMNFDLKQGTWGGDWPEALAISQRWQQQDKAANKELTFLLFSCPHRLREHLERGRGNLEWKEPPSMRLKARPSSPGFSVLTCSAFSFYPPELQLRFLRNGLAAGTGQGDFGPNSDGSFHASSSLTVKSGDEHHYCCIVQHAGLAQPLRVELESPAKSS
T3 sequence (P61769 21-119 limits assumed, chain 2 of 2, further chain): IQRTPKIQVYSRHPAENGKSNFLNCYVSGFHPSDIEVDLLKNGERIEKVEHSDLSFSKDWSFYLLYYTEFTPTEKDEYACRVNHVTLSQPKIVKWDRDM

T1 sequence (P02745 23-245 limits assumed, chain 1 of 3): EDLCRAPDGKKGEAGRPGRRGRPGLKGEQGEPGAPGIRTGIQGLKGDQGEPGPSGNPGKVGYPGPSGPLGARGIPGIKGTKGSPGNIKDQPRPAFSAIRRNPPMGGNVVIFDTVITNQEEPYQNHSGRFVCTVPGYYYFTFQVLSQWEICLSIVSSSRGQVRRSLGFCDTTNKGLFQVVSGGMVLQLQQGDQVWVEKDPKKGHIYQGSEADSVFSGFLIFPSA
T1 sequence (P02746 28-253 limits assumed, chain 2 of 3, further chain): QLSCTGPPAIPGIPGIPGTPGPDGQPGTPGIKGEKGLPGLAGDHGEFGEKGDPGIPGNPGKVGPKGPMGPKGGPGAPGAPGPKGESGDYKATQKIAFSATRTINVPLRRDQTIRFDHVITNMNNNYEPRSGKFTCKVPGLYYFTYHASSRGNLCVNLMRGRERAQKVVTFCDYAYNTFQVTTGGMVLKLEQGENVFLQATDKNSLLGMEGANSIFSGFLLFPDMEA
T1 sequence (P02747 29-245 limits assumed, chain 3 of 3, further chain): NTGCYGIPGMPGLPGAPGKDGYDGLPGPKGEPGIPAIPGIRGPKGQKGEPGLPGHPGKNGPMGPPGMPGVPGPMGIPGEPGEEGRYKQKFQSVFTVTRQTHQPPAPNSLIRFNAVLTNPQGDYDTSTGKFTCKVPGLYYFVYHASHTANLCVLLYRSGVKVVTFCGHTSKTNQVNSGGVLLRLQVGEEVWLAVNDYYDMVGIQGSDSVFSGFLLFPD
T4 sequence (P12314 16-292): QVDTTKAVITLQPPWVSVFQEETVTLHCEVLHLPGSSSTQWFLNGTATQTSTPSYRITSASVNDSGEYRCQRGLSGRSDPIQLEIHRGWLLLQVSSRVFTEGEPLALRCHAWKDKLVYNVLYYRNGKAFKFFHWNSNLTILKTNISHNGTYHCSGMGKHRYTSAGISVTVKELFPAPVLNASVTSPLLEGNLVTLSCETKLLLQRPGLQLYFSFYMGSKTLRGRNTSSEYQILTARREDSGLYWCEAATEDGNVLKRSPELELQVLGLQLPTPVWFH

Binder | binding result [1] | binding result [2] | binding result [3] | binding result [4] | binding result [5] | EC50 (read off the curve) [6] [mg/L] | binding result [7]
B1 | binds | binds | binds |  |  |  | 
B2 |  |  |  | binds | binds | ~0.2 | binds
